Consider six cell lines from the supplement of paper PMC4967469.

A lower IC50 marks a more sensitive line; where the fit passes the top or lowest dose, that dose stands as a limit. For AUC the same curve is integrated over the 256-fold range of doses and scaled to a fraction; values near 1 show little effect. For part of these data: An inferred top dose was derived from the fitted curves, not read from the paper. For part of these data: Drugs with an entry number were screened twice under separate entries, and the two screens often disagree.

Test in all cases: Viability of human cancer cell lines after 72 h of drug (GDSC screen)
Compound in one test: O=S(=O)(O)c1ccc2cc(N=Nc3cc(S(=O)(=O)O)c4cccnc4c3O)ccc2c1 [NSC-87877]
The settings on record: top dose 16 µM; top dose inferred. The procedure: (§1)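 Human cancer cell lines in 384-well plates, medium with 10% serum, drug for 72 h over a 256-fold dose range (nine 2-fold or five 4-fold steps up to the top dose). Adherent lines were fixed and stained with the nucleic acid dye Syto60, suspension lines read with resazurin; signal relative to control wells, capped at 0 and 100%. One two-parameter sigmoid per drug and line, fitted in a mixed model over all curves with the slope shared within a line.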

Compound in another test: Cc1c(N)nc([C@H](CC(N)=O)NC[C@H](N)C(N)=O)nc1C(=O)N[C@H](C(=O)N[C@H](C)[C@@H](O)[C@H](C)C(=O)N[C@H](C(=O)NCCc1nc(-c2nc(C(=O)NCCC[S+](C)C)cs2)cs1)[C@@H](C)O)[C@@H](OC1OC(CO)C(O)C(O)C1OC1OC(CO)C(O)C(OC(N)=O)C1O)c1cnc[nH]1 [Bleomycin]
The procedure: as §1

Compound in a further test: O=C(Nc1ccc(OC(F)(F)F)cc1)c1sccc1NCc1ccnc2ccccc12 [OSI-930]
Particulars: top dose 10.24 µM. The procedure:
as §1

Compound in the next test: O=C(Nc1cccc(Nc2ncc(Br)c(NCCc3cnc[nH]3)n2)c1)N1CCCC1 [BX-912]
Particulars: top dose 10.24 µM; top dose inferred. The procedure: as §1

Compound in the next test: COc1cc(N2CCC(C(N)=O)CC2)ccc1Nc1nc(N)c(Cl)c(Nc2ccccc2S(=O)(=O)C(C)C)n1 [HG-5-88-01]
Particulars: top dose 10 µM; top dose inferred. The procedure:
as §1

Compound in another test: CCCC(=O)OCc1ccc(OC(=O)/C=C(C)/C=C/C=C(C)/C=C/C2=C(C)CCCC2(C)C)cc1 [VNLG/124]
The settings on record: top dose 5.12 µM; top dose inferred. The procedure: as §1

Compound in a further test: CN(NC(=O)CC(=O)NN(C)C(=S)c1ccccc1)C(=S)c1ccccc1 [Elesclomol]
The settings on record: top dose 0.2 µM; top dose inferred. The procedure:
as §1

Compound in a further test: CC/C(=C(\c1ccccc1)c1ccc(OCCN(C)C)cc1)c1ccccc1 [Tamoxifen]
Particulars: top dose 5 µM. The procedure:
as §1

Compound in a further test: Cc1ccc(NC(=O)c2ccc(CN3CCN(C)CC3)cc2)cc1Nc1nc(-c2cccnc2)cs1 [Masitinib]
The settings on record: top dose 20 µM. The procedure: as §1

Compound in another test: O=C(/C=C/c1ccc(CN(CCO)CCc2c[nH]c3ccccc23)cc1)NO [LAQ824]
Particulars: top dose 1.024 µM; top dose inferred. The procedure: as §1

[1] abbreviates: top dose 50 µM, screen: GDSC drug entry 1378, top dose inferred.
[2] abbreviates: top dose 64 µM, screen: GDSC drug entry 190.

For SK-N-AS (neuroblastoma, adherent), the AUC with NSC-87877 turned out to be 0.982; in the test with Bleomycin (setting [1]), 0.816; with Bleomycin (setting [2]), 0.978; with OSI-930, 0.965; in the test with BX-912, 0.892; with HG-5-88-01 it was 0.913. Besides, the AUC with VNLG/124 worked out at 0.984; with Elesclomol, 0.718; in the test with Tamoxifen, 0.982; in the test with Masitinib, 0.931; with LAQ824 it was 0.766. The IC50 was greater than 16 µM with NSC-87877; 33.4 µM in the test with Bleomycin (setting [1]); greater than 64 µM with Bleomycin (setting [2]); greater than 10.2 µM with OSI-930; greater than 10.2 µM with BX-912; greater than 10 µM in the test with HG-5-88-01. Besides, the IC50 is greater than 5.12 µM with VNLG/124; 0.0576 µM in the test with Elesclomol; greater than 5 µM with Tamoxifen; greater than 20 µM with Masitinib; 0.435 µM with LAQ824.

Consider SK-MEL-30 (melanoma, adherent), for which the AUC in the test with NSC-87877 turned out to be 0.822; with Bleomycin (setting [1]), 0.648; with Bleomycin (setting [2]), 0.229; in the test with OSI-930, 0.981; with BX-912, 0.96; with HG-5-88-01, 0.978. The AUC was 0.98 with VNLG/124; 0.754 in the test with Elesclomol; 0.984 in the test with Tamoxifen; 0.876 with Masitinib; 0.44 in the test with LAQ824. Besides, the IC50 with NSC-87877 was 10 µM; with Bleomycin (setting [1]) it was 8.21 µM; with Bleomycin (setting [2]), 0.618 µM; with OSI-930, greater than 10.2 µM; in the test with BX-912, greater than 10.2 µM; with HG-5-88-01, greater than 10 µM. Further, the IC50 with VNLG/124 is greater than 5.12 µM; with Elesclomol it was 0.0708 µM; with Tamoxifen, greater than 5 µM; with Masitinib it was greater than 20 µM; with LAQ824, 0.0436 µM.

Regarding TGW (neuroblastoma, adherent), the AUC in the test with NSC-87877 turned out to be 0.991; in the test with Bleomycin (setting [1]) it was 0.986; with Bleomycin (setting [2]), 0.822; with OSI-930, 0.968; in the test with BX-912 it was 0.822; with HG-5-88-01, 0.888. The AUC was found to be 0.958 with VNLG/124; 0.565 with Elesclomol; 0.99 in the test with Tamoxifen; 0.89 with Masitinib; 0.473 with LAQ824. Besides, the IC50 was greater than 16 µM with NSC-87877; greater than 50 µM in the test with Bleomycin (setting [1]); 30.7 µM with Bleomycin (setting [2]); greater than 10.2 µM with OSI-930; 4.9 µM in the test with BX-912; 8.47 µM in the test with HG-5-88-01. Moreover, the IC50 in the test with VNLG/124 is greater than 5.12 µM; in the test with Elesclomol it was 0.0183 µM; with Tamoxifen it was greater than 5 µM; with Masitinib, 17.3 µM; in the test with LAQ824 it was 0.0547 µM.

Turning to K5 (thyroid, adherent), the AUC worked out at 0.988 with NSC-87877; 0.193 with Bleomycin (setting [1]); 0.767 with Bleomycin (setting [2]); 0.984 with OSI-930; 0.932 with BX-912; 0.906 with HG-5-88-01. The AUC with VNLG/124 amounted to 0.982; with Elesclomol, 0.439; with Tamoxifen it was 0.986; with Masitinib it was 0.875; in the test with LAQ824, 0.444. In addition, the IC50 is greater than 16 µM with NSC-87877; 0.403 µM in the test with Bleomycin (setting [1]); 22.8 µM with Bleomycin (setting [2]); greater than 10.2 µM with OSI-930; greater than 10.2 µM with BX-912; greater than 10 µM with HG-5-88-01. In addition, the IC50 with VNLG/124 is greater than 5.12 µM; in the test with Elesclomol, 0.00856 µM; with Tamoxifen it was greater than 5 µM; with Masitinib it was 18.2 µM; with LAQ824, 0.0452 µM.

In the case of “DMS-273 (small cell lung carcinoma, adherent)”, the AUC with NSC-87877 worked out at 0.985; with Bleomycin (setting [1]), 0.586; with Bleomycin (setting [2]), 0.494; with OSI-930 it was 0.965; in the test with BX-912, 0.94; with HG-5-88-01 it was 0.983. Also, the AUC in the test with VNLG/124 was 0.985; with Elesclomol it was 0.445; with Tamoxifen, 0.983; in the test with Masitinib, 0.701; with LAQ824 it was 0.451. For the same cell line, the IC50 in the test with NSC-87877 was greater than 16 µM; with Bleomycin (setting [1]), 5.45 µM; with Bleomycin (setting [2]), 3.85 µM; with OSI-930 it was greater than 10.2 µM; with BX-912, greater than 10.2 µM; in the test with HG-5-88-01, greater than 10 µM. The IC50 in the test with VNLG/124 was greater than 5.12 µM; in the test with Elesclomol, 0.00877 µM; with Tamoxifen it was greater than 5 µM; with Masitinib it was 4.76 µM; with LAQ824, 0.0466 µM.

Regarding SR (lymphoid neoplasm, suspension), the AUC with NSC-87877 turned out to be 0.979; with Bleomycin (setting [1]) it was 0.106; with Bleomycin (setting [2]) it was 0.033; with OSI-930, 0.872; with BX-912 it was 0.396; in the test with HG-5-88-01, 0.028. Also, the AUC in the test with VNLG/124 was 0.982; with Elesclomol, 0.603; with Tamoxifen, 0.895; with Masitinib, 0.534; with LAQ824, 0.197. The IC50 was greater than 16 µM in the test with NSC-87877; 0.196 µM with Bleomycin (setting [1]); less than 0.25 µM in the test with Bleomycin (setting [2]); 8.09 µM with OSI-930; 0.342 µM in the test with BX-912; less than 0.0391 µM in the test with HG-5-88-01. For the same cell line, the IC50 with VNLG/124 was greater than 5.12 µM; with Elesclomol, 0.0233 µM; with Tamoxifen, greater than 5 µM; in the test with Masitinib, 1.53 µM; with LAQ824 it was 0.00916 µM.

What is called IC50 is the concentration that inhibits the measured activity by half.
